# Test results published in the supplement of paper PMC4166925.
# ± gives the standard deviation of the averaged measurements. Over roughly 33,000 sequences, “E-score (dimensionless, -0.5 to 0.5)” has its median near -0.046; the highest 2% begin near 0.36. The list shows a part of the results.
# System: T1, SpTbr T-box DNA-binding domain (GST fusion)
# T1 sequence: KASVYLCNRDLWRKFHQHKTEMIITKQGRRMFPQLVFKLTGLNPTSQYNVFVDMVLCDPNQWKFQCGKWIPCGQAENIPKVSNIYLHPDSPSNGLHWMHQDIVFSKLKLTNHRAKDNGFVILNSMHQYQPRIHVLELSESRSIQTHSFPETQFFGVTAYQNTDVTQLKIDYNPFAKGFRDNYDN
# Assay: PBM E-score of 8-mer (E-score (dimensionless, -0.5 to 0.5)); Tbr is Tbrain of the sea star Patiria miniata (Pm) or the sea urchin Strongylocentrotus purpuratus (Sp); higher = stronger binding preference; most listed sequences are background and not binding sites
# Conditions: the construct has about 5 more residues each side
# How it was run: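 Each ungapped 8-mer received an enrichment E-score from the Universal PBM Analysis Suite, averaged over duplicate arrays. The proteins were Tbr T-box DNA-binding domains, covering the whole T-box plus about five flanking residues, fused to GST and expressed in BL21 E. coli at 20 °C before glutathione affinity purification. Universal Agilent oligonucleotide arrays were made double-stranded by primer extension and incubated with 200 nM protein in PBS (pH 7.5). The arrays were then scanned and quantified, and every 8-mer was scored from probe intensities.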
row,Sequence,PBM E-score of 8-mer
1,AGTTTTCG,0.115 ± 0.0031
2,GGGGCAAC,-0.169 ± 0.047
3,CCCTCATA,0.0313 ± 0.072
4,CTAAACGC,-0.00247 ± 0.068
5,GCATGGGC,-0.0364 ± 0.0065
6,ATTTCTGA,-0.236 ± 0.077
7,TACCACCA,0.0959 ± 0.014
8,AAGCCCCC,-0.305 ± 0.025
9,AGACTAAC,0.0868 ± 0.02
10,ACCGTAAC,-0.00357 ± 0.013
11,AACCAGAT,-0.0824 ± 0.0082
12,CGGACCAA,-0.345 ± 0.038
13,GGGAGTTA,-0.0251 ± 0.025
14,CGGGTCTC,-0.0472 ± 0.0069
15,TGCTCGAA,-0.2603 ± 0.0024
16,CCCTAAAC,-0.153 ± 0.041
17,CGCGAGCA,0.275 ± 0.036
18,ATAGAATG,-0.237 ± 0.044
19,GTTTCTGA,-0.137 ± 0.012
20,CATGACTA,-0.196 ± 0.068
21,AATTAATG,-0.238 ± 0.036
22,ACCTATCC,-0.0393 ± 0.065
23,CACTTAGC,0.174 ± 0.056
24,ACTTGTGG,0.205 ± 0.00054
25,AAATTTTC,-0.0749 ± 0.026

row,Sequence,PBM E-score of 8-mer
1,CCTGTTCA,0.101 ± 0.00044
2,AAGGATCG,-0.164 ± 0.067
3,CCCACAAG,-0.153 ± 0.035
4,CAAGGAGC,-0.195 ± 0.082
5,AAATGACA,0.151 ± 0.004
6,ATTCCTGA,-0.225 ± 0.011
7,CTGCTACA,-0.0452 ± 0.072
8,CGCGGAGA,0.00232 ± 0.0055
9,CCGTGTCA,0.176 ± 0.013
10,TCGACTAA,-0.0107 ± 0.036
11,CAAACTTC,-0.197 ± 0.064
12,AGGTACTA,-0.105 ± 0.09
13,CCCTGGGC,-0.111 ± 0.013
14,CCGGGGCC,-0.153 ± 0.042
15,CCCCCCCC,-0.0653 ± 0.059
16,TCGAGACA,-0.0938 ± 0.056
17,AAAACAGC,0.152 ± 0.041
18,CCCCGGTA,-0.125 ± 0.033
19,CACCCCCC,0.184 ± 0.003
20,AGTATCCG,-0.347 ± 0.051
21,ATATCCGA,-0.0578 ± 0.011
22,ACGGAGTC,0.00717 ± 0.046
23,AACCCTAG,0.146 ± 0.034
24,TGTCGCAA,0.207 ± 0.026
25,GTCCGATA,-0.0395 ± 0.019

row,Sequence,PBM E-score of 8-mer
1,CACGGACC,-0.133 ± 0.031
2,CCGTAGTC,-0.182 ± 0.055
3,GAATGAGC,-0.191 ± 0.038
4,GAGCTGGC,-0.0512 ± 0.033
5,GAGGACGC,0.0247 ± 0.027
6,ATTGTGGC,0.00409 ± 0.062
7,AAACGACC,0.0563 ± 0.019
8,AAACCTCA,-0.187 ± 0.087
9,CGTCCAGC,-0.207 ± 0.04
10,GCATGAGC,-0.0917 ± 0.011
11,ACACAGGA,-0.168 ± 0.018
12,GCTCCAAA,-0.203 ± 0.071
13,ATTAATAA,-0.0848 ± 0.078
14,ATCTCCGG,0.0811 ± 0.031
15,ATCCTATG,-0.248 ± 0.013
16,AACGAGCA,0.0866 ± 0.091
17,ATTTAAGG,-0.135 ± 0.075
18,TGAGGGAA,-0.0735 ± 0.021
19,AATCATGG,-0.0493 ± 0.023
20,AATAGTCA,0.0181 ± 0.026
21,AGCAGGCC,-0.13 ± 0.05
22,AACGTCTC,0.031 ± 0.02
23,CTACGCTA,-0.0759 ± 0.0034
24,ATCTCGAA,-0.155 ± 0.035
25,ATTTCTGG,-0.13 ± 0.0057

row,Sequence,PBM E-score of 8-mer
1,GGAGGATA,-0.24 ± 0.02
2,CTGTGAGC,0.225 ± 0.0048
3,TACACGTA,0.0515 ± 0.041
4,AATGAGGT,0.178 ± 0.073
5,CCCTACAC,0.0736 ± 0.018
6,CGTCATCA,0.227 ± 0.019
7,ATAATAGC,-0.085 ± 0.017
8,CAACGCAC,0.137 ± 0.024
9,CTAGTCTC,-0.0209 ± 0.025
10,CGTGGAAC,0.157 ± 0.043
11,ATTGTGGA,0.0374 ± 0.11
12,ACGTGAAC,0.126 ± 0.031
13,CAGATGCC,-0.248 ± 0.044
14,CCATTCAG,0.0504 ± 0.014
15,GACGGGGA,-0.00484 ± 0.006
16,CGCGGGCC,-0.00492 ± 0.0016
17,ATGTAGTC,-0.271 ± 0.04
18,CACTACAG,0.00822 ± 0.021
19,GGTAACCA,-0.0926 ± 0.038
20,CGGAGTAC,-0.141 ± 0.013
21,GCTTTGAA,-0.185 ± 0.01
22,TGATCCCA,-0.00177 ± 0.0032
23,AAAAGCCA,-0.154 ± 0.04
24,CCCGCAGG,-0.0545 ± 0.0061
25,TAGTACAA,-0.0337 ± 0.046

row,Sequence,PBM E-score of 8-mer
1,CCCGTGAG,-0.0328 ± 0.0095
2,CACTTCTA,0.304 ± 0.022
3,CTGATCAC,0.202 ± 0.01
4,AAGAACGA,-0.228 ± 0.0065
5,CATCGGGG,-0.0653 ± 0.086
6,AAAGGCTG,0.0423 ± 0.004
7,CGCACTTA,0.329 ± 0.0023
8,TCGGTACA,-0.161 ± 0.11
9,ACGTCAGG,-0.127 ± 0.05
10,AGGTCCTA,-0.0526 ± 0.058
11,GCTTGGTA,-0.117 ± 0.011
12,CATGGTAC,-0.0349 ± 0.043
13,GGATGGGA,-0.354 ± 0.037
14,ACGTCAAG,0.0322 ± 0.037
15,AAGGCACA,-0.16 ± 0.04
16,GGTCATAA,-0.216 ± 0.045
17,CCTCCCCC,-0.0238 ± 0.056
18,CATCGAGG,-0.0571 ± 0.0048
19,AGTGCCCC,-0.185 ± 0.025
20,GTGCTCAA,-0.0324 ± 0.11
21,ACCCACTA,-0.00841 ± 0.12
22,TAGGGTAA,-0.151 ± 0.034
23,ACGTGAAA,0.121 ± 0.014
24,CGCCATTC,0.21 ± 0.011
25,ATCATGAT,-0.0317 ± 0.029

row,Sequence,PBM E-score of 8-mer
1,GGCGCGAC,0.369 ± 0.017
2,AGAAAGTA,-0.102 ± 0.082
3,CCGTGCAC,-0.0263 ± 0.1
4,AAATGCCA,0.00246 ± 0.043
5,ACGTGTAA,0.333 ± 0.053
6,AAGCGCAG,0.0307 ± 0.015
7,CAAGGACC,-0.213 ± 0.012
8,ATCCTCCC,-0.04 ± 0.03
9,AGGCGGGG,0.0193 ± 0.05
10,CATTACCA,-0.0474 ± 0.028
11,TCTCTCCA,-0.072 ± 0.044
12,TCCCAGAA,-0.0607 ± 0.066
13,CCTTACTA,0.0201 ± 0.027
14,ACACTGTA,0.172 ± 0.036
15,ATTATTTA,-0.104 ± 0.043
16,ATATTCGA,-0.0272 ± 0.061
17,AGCGTACC,-0.2 ± 0.054
18,CCCGAATC,-0.0381 ± 0.015
19,GTATGCGA,-0.102 ± 0.054
20,TCGCCTCA,0.164 ± 0.032
21,CTCCGTTA,0.0633 ± 0.0074
22,AATCAATC,0.0621 ± 0.074
23,GATGTTAA,-0.0106 ± 0.055
24,ACAGATAA,0.0988 ± 0.072
25,AGAGTGTG,0.375 ± 0.022

row,Sequence,PBM E-score of 8-mer
1,ACAGTTAG,0.0873 ± 0.0094
2,ACACATAG,0.306 ± 0.018
3,GACTCGTA,-0.123 ± 0.017
4,CACTATGG,0.0787 ± 0.025
5,CTTTACGC,0.0326 ± 0.021
6,CAATCCAG,-0.021 ± 0.032
7,CAAAGCGG,-0.173 ± 0.015
8,AGCGTCAT,0.129 ± 0.042
9,TCTGACAA,-0.0245 ± 0.056
10,CCGTTCCA,-0.0299 ± 0.0058
11,CGCAACTA,0.158 ± 0.017
12,AGCTATTA,-0.0958 ± 0.071
13,GAGCCTAA,-0.155 ± 0.016
14,ATAATTCA,0.0925 ± 0.0082
15,GAAGGCGC,0.296 ± 0.052
16,CGTTAACG,0.372 ± 0.0041
17,CAAGAACC,-0.0953 ± 0.051
18,TGCCGTAA,-0.226 ± 0.091
19,AAAGACCG,-0.13 ± 0.0059
20,GAAACTGA,-0.0707 ± 0.037
21,CCGACCTA,-0.128 ± 0.099
22,GCACTCCC,0.128 ± 0.051
